This note sets out measurements from publication PMC6914800.

Sequences of proteins named here, by UniProt entry; tags and fusion partners are left off. Residues count along the entry.
UniProt P08581, residues 25-1390: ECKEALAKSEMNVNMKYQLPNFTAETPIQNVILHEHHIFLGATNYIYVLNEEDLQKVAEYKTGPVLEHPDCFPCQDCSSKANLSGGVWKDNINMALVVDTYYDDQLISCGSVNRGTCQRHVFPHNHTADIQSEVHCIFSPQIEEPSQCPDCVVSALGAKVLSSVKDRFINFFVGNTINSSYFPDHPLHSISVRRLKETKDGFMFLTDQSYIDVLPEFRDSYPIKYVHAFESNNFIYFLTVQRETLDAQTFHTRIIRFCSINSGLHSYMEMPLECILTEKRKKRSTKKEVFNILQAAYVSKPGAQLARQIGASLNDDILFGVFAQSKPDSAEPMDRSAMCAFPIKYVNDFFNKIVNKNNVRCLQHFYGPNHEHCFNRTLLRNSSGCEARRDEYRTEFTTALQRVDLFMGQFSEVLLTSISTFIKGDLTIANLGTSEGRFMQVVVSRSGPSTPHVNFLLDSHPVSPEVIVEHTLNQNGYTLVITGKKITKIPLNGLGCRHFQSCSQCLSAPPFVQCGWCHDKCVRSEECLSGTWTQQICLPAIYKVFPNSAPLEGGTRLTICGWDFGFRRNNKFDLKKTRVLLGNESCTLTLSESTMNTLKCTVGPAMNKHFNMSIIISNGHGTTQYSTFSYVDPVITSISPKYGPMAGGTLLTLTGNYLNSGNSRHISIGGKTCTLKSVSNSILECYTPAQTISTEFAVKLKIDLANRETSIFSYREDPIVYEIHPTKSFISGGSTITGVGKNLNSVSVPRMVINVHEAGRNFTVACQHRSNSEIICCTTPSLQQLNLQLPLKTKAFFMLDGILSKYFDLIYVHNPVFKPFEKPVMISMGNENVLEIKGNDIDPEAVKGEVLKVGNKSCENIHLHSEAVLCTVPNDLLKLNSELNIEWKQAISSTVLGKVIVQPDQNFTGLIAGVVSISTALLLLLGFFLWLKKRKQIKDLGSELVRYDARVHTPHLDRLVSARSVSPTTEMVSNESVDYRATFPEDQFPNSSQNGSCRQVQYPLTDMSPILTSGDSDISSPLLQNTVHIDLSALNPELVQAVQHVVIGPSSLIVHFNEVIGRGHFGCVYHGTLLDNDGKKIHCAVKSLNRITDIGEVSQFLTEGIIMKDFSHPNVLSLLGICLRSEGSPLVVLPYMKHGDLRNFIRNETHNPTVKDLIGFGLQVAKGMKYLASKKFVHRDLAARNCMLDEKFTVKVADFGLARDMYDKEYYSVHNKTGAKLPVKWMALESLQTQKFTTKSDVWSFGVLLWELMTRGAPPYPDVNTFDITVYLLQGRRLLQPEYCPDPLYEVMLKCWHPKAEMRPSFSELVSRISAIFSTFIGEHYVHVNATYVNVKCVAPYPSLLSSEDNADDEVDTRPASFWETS
UniProt P35222: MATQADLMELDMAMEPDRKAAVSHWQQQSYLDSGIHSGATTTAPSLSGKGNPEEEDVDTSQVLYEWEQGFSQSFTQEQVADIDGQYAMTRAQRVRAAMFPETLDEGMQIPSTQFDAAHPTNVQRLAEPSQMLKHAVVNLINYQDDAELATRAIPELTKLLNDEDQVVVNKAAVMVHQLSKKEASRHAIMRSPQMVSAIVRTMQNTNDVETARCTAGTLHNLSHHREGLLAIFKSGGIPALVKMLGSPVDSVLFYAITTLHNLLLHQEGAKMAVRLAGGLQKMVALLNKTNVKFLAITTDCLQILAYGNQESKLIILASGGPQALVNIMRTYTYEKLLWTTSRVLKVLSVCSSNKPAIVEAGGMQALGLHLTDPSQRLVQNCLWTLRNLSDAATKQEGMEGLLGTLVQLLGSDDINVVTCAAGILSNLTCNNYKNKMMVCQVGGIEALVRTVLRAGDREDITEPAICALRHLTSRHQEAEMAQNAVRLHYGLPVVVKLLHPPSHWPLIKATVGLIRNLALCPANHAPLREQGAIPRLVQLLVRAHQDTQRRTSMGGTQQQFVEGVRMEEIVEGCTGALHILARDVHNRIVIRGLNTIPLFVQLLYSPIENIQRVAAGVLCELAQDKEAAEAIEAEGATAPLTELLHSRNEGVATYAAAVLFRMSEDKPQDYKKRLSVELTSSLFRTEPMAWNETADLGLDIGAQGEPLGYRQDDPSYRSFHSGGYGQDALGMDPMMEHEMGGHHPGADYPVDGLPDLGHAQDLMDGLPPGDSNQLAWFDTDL

Residue numbers refer to the chain shown, from its start. Results are given in words; binding and its absence hold for the method and conditions named. For some assays here: Binding seen in cells or lysates may run through a third protein. Some results given as binding are weak or reduced against the parent protein; the word gives no strength. For some assays here: Tags and fused reporters may be left off the sequences shown.

Assay [1] addresses Protein tyrosine kinase 6 (PTK6), endogenous (human (endogenous in Huh-7)) (UniProt Q13882). Briefly: co-IP; IP/Western; with or without the c-Met inhibitor XL-184; cells not given.
In assay [2] the target is T1, Paraspeckle component 1 (PSPC1), endogenous (human (endogenous in Huh-7)) (UniProt Q8WXF1).
T1 sequence: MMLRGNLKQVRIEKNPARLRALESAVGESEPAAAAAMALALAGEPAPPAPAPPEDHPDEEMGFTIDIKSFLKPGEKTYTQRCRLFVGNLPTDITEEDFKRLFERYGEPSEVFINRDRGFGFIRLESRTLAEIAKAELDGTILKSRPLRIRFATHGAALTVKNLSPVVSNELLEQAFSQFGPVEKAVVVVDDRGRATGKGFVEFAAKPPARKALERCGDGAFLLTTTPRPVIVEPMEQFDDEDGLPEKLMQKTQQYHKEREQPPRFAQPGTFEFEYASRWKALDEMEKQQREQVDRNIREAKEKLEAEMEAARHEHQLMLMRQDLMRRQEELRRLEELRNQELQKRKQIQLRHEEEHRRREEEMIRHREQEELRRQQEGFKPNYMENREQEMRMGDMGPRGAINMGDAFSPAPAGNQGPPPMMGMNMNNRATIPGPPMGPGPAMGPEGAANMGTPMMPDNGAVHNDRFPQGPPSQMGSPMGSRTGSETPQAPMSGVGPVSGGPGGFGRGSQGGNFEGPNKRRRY
Briefly: co-IP; IP/Western of Huh-7 cells under HGF stimulation (10 ng/ml).

In assay [3] the target is T1, Paraspeckle component 1 (PSPC1), endogenous (human (endogenous in Huh-7)). Put plainly: co-IP; IP/Western of endogenous proteins in Huh-7 lysate; RIPA buffer (50 mM Tris-Cl pH 8.0, 150 mM NaCl, 1% NP-40), antibody or control IgG with Protein A/G Sepharose overnight at 4 °C; cells untreated or treated with HGF (10 ng/ml).
The target of assay [4] is T2, HA-tagged PSPC1 (wild type) (UniProt Q8WXF1).
T2 sequence: T1 sequence
Put plainly: co-IP; IP/Western of SK-hep1 cells ectopically expressing HA-tagged PSPC1 (wild type or mutants) and/or Flag-tagged PTK6; RIPA buffer (50 mM Tris-Cl pH 8.0, 150 mM NaCl, 1% NP-40), overnight at 4 °C.

The next assay deals with T3, PSPC1-Y523F (UniProt Q8WXF1).
T3 sequence: T1 sequence with Y523F
Described as above.

For assay [5], the target named is T2, HA-tagged PSPC1 (wild type). Briefly: condition: only treatment of the IP complex with calf-intestinal alkaline phosphatase (CIP); co-IP; IP/Western; the IP complex treated with nonspecific calf-intestinal alkaline phosphatase (CIP).
Another assay addresses T4, PSPC1-Y383F (UniProt Q8WXF1).
T4 sequence: T1 sequence with Y383F
Briefly: co-IP; IP/Western of SK-hep1 cells ectopically expressing HA-tagged PSPC1 (wild type or mutants) and/or Flag-tagged PTK6; RIPA buffer (50 mM Tris-Cl pH 8.0, 150 mM NaCl, 1% NP-40), overnight at 4 °C.

The next assay has as its target T5, recombinant GST-PSPC1 (UniProt Q8WXF1).
T5 sequence: T1 sequence
Briefly: pull-down; GST-tagged PSPC1 incubated with recombinant PTK6 in GST pulldown buffer (100 mM Tris pH 8.0, 1% NP40, 150 mM NaCl) overnight at 4 °C, washed six times, Western blotting; both purified. (In western blotting, separated proteins are transferred to a membrane and probed.)

Turning to “c-Met (from UniProt P08581 25-1390) (receptor)”, in assay [1], the binding entry is “binds”.
As to “Protein tyrosine kinase 6 (PTK6), endogenous (from UniProt Q13882 1-451) (enzyme)”, the binding result in assay [2] is recorded as “no binding (condition: under HGF stimulation (10 ng/ml))”; in assay [3] it was “binds”.
Turning to β-catenin (from UniProt P35222 1-781), the binding entry (in assay [4]; with PSPC1-Y523F; in assay [3]) was “binds” each time.
Turning to “PTK6 kinase-dead mutant, PTK6-KM (PTK6-K219M) (from UniProt Q13882 1-451) (enzyme)”, in assay [4], the binding result is reported as “no binding”.
Regarding “Flag-tagged PTK6 (wild type) (from UniProt Q13882 1-451) (enzyme)”, the values for the binding result (in assay [5]; in assay [4]; with PSPC1-Y383F) were “no binding”, “binds” and “binds”, respectively.
As to “recombinant PTK6 (Thermo-Fisher Scientific) (from UniProt Q13882 1-451) (enzyme)”, the binding result in the assay with recombinant GST-PSPC1 is on record as “binds”.
